# In the supplement of paper PMC8728848:
# The other results are listed elsewhere or left out.
# B1: LngA (Escherichia coli) (protein)
# chain: MLSVYNRTQKFKAEARKKIAKYHELRKQRGMSLLEVIIVLGIIGTIAAGVVILAQRAFDSRAVTDLVTNTNTVRVRMKDAYQRDGKYPDFVDPLSLTANTIKTDTSGIPAAQLVQLGKITPDEVRNNISGDFIAIGGALTSNGAQVKKGFAIELNGLSQEQCRSILGQVGNNWEYVAIGTSASGSYAMTATGVDMSVAASTTVLRSLGNNGQTTLTADKILSTCTAQVNSITLGSR
# How the values were obtained:
# Test in all cases: glycan array binding signal (z-score within array); higher = stronger binding
# Conditions in all cases: glycan notation: IUPAC condensed, linker removed
# [1] = molecular target: Fuc(a1-3)GlcNAc
# Outline: (§1)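 Arrays were curated from the Consortium for Functional Glycomics database, 3228 in total, and kept only where the protein sequence was available. Binding is expressed as a within-array Z-score. This score was averaged across arrays of the same protein sequence at different concentrations or buffers and across linkers, and negative values can be read as non-binding.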
# [2] = molecular target: Fuc(a1-3)[Gal(b1-4)]Glc6S
# Outline: as §1
# [3] = molecular target: Fuc(a1-3)[Gal(b1-4)]GlcNAc
# Outline: as §1
# [4] = molecular target: Fuc(a1-3)[Gal(b1-4)]GlcNAc(b1-2)Man
# Outline: as §1
# [5] = molecular target: Fuc(a1-3)[Gal(b1-4)]GlcNAc(b1-2)Man(a1-3)[Fuc(a1-3)[Gal(b1-4)]GlcNAc(b1-2)Man(a1-6)]Man(b1-4)GlcNAc(b1-4)GlcNAc
# Outline: as §1
# [6] = molecular target: Fuc(a1-3)[Gal(b1-4)]GlcNAc(b1-2)Man(a1-3)[Fuc(a1-3)[Gal(b1-4)]GlcNAc(b1-2)Man(a1-6)]Man(b1-4)GlcNAc(b1-4)[Fuc(a1-6)]GlcNAc
# Outline: as §1
# [7] = molecular target: Fuc(a1-3)[Gal(b1-4)]GlcNAc(b1-3)Gal(b1-3)[Fuc(a1-4)]GlcNAc
# Outline: as §1
# [8] = molecular target: Fuc(a1-3)[Gal(b1-4)]GlcNAc(b1-3)Gal(b1-4)[Fuc(a1-3)]GlcNAc
# Outline: as §1
# [9] = molecular target: Fuc(a1-3)[Gal(b1-4)]GlcNAc(b1-3)Gal(b1-4)[Fuc(a1-3)]GlcNAc(b1-3)Gal(b1-4)[Fuc(a1-3)]GlcNAc
# Outline: as §1
# [10] = molecular target: Fuc(a1-3)[Gal(b1-4)]GlcNAc(b1-3)GalNAc
# Outline: as §1
# [11] = molecular target: Fuc(a1-3)[Gal(b1-4)]GlcNAc(b1-6)GalNAc
# Outline: as §1
# [12] = molecular target: Fuc(a1-3)[Gal(b1-4)]GlcNAc(b1-6)[Gal(b1-3)GlcNAc(b1-3)]Gal(b1-4)Glc
# Outline: as §1
# [13] = molecular target: Fuc(a1-3)[Gal(b1-4)]GlcNAc6S
# Outline: as §1
# [14] = molecular target: Fuc(a1-3)[Gal3S(b1-4)]Glc
# Outline: as §1
# [15] = molecular target: Fuc(a1-3)[Gal3S(b1-4)]GlcNAc
# Outline: as §1
# [16] = molecular target: Fuc(a1-3)[Gal3S(b1-4)]GlcNAc6S
# Outline: as §1
# [17] = molecular target: Fuc(a1-3)[GalNAc(b1-4)]GlcNAc
# Outline: as §1
# [18] = molecular target: Fuc(a1-3)[GalNAc(b1-4)]GlcNAc6S
# Outline: as §1
# [19] = molecular target: Fuc(a1-4)GlcNAc
# Outline: as §1
# [20] = molecular target: Fuc(b1-3)GlcNAc
# Outline: as §1
# [21] = molecular target: Gal(a1-2)Gal
# Outline: as §1
# [22] = molecular target: Gal(a1-3)Gal
# Outline: as §1
# [23] = molecular target: Gal(a1-3)Gal(b1-3)GlcNAc
# Outline: as §1
# [24] = molecular target: Gal(a1-3)Gal(b1-3)GlcNAc(b1-2)Man
# Outline: as §1
# [25] = molecular target: Gal(a1-3)Gal(b1-3)GlcNAc(b1-2)Man(a1-3)[Gal(a1-3)Gal(b1-3)GlcNAc(b1-2)Man(a1-6)]Man(b1-4)GlcNAc(b1-4)GlcNAc
# Outline: as §1
# [26] = molecular target: Gal(a1-3)Gal(b1-3)GlcNAc(b1-3)GalNAc
# Outline: as §1
# [27] = molecular target: Gal(a1-3)Gal(b1-3)GlcNAc(b1-6)GalNAc
# Outline: as §1
# [28] = molecular target: Gal(a1-3)Gal(b1-3)[Fuc(a1-4)]GlcNAc(b1-2)Man(a1-3)[Gal(a1-3)Gal(b1-3)[Fuc(a1-4)]GlcNAc(b1-2)Man(a1-6)]Man(b1-4)GlcNAc(b1-4)GlcNAc
# Outline: as §1
# [29] = molecular target: Gal(a1-3)Gal(b1-4)Glc
# Outline: as §1
# [30] = molecular target: Gal(a1-3)Gal(b1-4)GlcNAc
# Outline: as §1
# [31] = molecular target: Gal(a1-3)Gal(b1-4)GlcNAc(b1-2)Man
# Outline: as §1
# [32] = molecular target: Gal(a1-3)Gal(b1-4)GlcNAc(b1-2)Man(a1-3)[Gal(a1-3)Gal(b1-4)GlcNAc(b1-2)Man(a1-6)]Man(b1-4)GlcNAc(b1-4)GlcNAc
# Outline: as §1
# [33] = molecular target: Gal(a1-3)Gal(b1-4)GlcNAc(b1-3)GalNAc
# Outline: as §1
# [34] = molecular target: Gal(a1-3)Gal(b1-4)GlcNAc(b1-6)GalNAc
# Outline: as §1
# [35] = molecular target: Gal(a1-3)Gal(b1-4)[Fuc(a1-3)]GlcNAc
# Outline: as §1
# [36] = molecular target: Gal(a1-3)Gal(b1-4)[Fuc(a1-3)]GlcNAc(b1-2)Man(a1-3)[Gal(a1-3)Gal(b1-4)[Fuc(a1-3)]GlcNAc(b1-2)Man(a1-6)]Man(b1-4)GlcNAc(b1-4)GlcNAc
# Outline: as §1
# [37] = molecular target: Gal(a1-3)GalNAc
# Outline: as §1
# [38] = molecular target: Gal(a1-3)[Gal(a1-4)]Gal(b1-4)GlcNAc
# Outline: as §1
# [39] = molecular target: Gal(a1-4)Gal(b1-3)GlcNAc(b1-2)Man(a1-3)[Gal(a1-4)Gal(b1-3)GlcNAc(b1-2)Man(a1-6)]Man(b1-4)GlcNAc(b1-4)GlcNAc
# Outline: as §1
# [40] = molecular target: Gal(a1-4)Gal(b1-4)Glc
# Outline: as §1
# [41] = molecular target: Gal(a1-4)Gal(b1-4)GlcNAc
# Outline: as §1
# [42] = molecular target: Gal(a1-4)Gal(b1-4)GlcNAc(b1-2)Man(a1-3)[Gal(a1-4)Gal(b1-4)GlcNAc(b1-2)Man(a1-6)]Man(b1-4)GlcNAc(b1-4)GlcNAc
# Outline: as §1
# [43] = molecular target: Gal(a1-4)Gal(b1-4)GlcNAc(b1-3)Gal(b1-4)Glc
# Outline: as §1
# [44] = molecular target: Gal(a1-4)GlcNAc
# Outline: as §1
# [45] = molecular target: Gal(a1-6)Glc
# Outline: as §1
binder,measurement,setting,value
B1,glycan array binding signal (z-score),[1],-0.418
same,glycan array binding signal (z-score),[2],1.11
same,glycan array binding signal (z-score),[3],-0.135
same,glycan array binding signal (z-score),[4],-0.088
same,glycan array binding signal (z-score),[5],-0.119
same,glycan array binding signal (z-score),[6],-0.064
same,glycan array binding signal (z-score),[7],-0.463
same,glycan array binding signal (z-score),[8],-0.277
same,glycan array binding signal (z-score),[9],-0.344
same,glycan array binding signal (z-score),[10],-0.267
same,glycan array binding signal (z-score),[11],-0.182
same,glycan array binding signal (z-score),[12],-0.392
same,glycan array binding signal (z-score),[13],-0.188
same,glycan array binding signal (z-score),[14],-0.365
same,glycan array binding signal (z-score),[15],0.116
same,glycan array binding signal (z-score),[16],-0.137
same,glycan array binding signal (z-score),[17],0.135
same,glycan array binding signal (z-score),[18],-0.265
same,glycan array binding signal (z-score),[19],-0.404
same,glycan array binding signal (z-score),[20],-0.322
same,glycan array binding signal (z-score),[21],0.247
same,glycan array binding signal (z-score),[22],-0.397
same,glycan array binding signal (z-score),[23],2.92
same,glycan array binding signal (z-score),[24],-0.379
same,glycan array binding signal (z-score),[25],1.17
same,glycan array binding signal (z-score),[26],-0.134
same,glycan array binding signal (z-score),[27],-0.419
same,glycan array binding signal (z-score),[28],0.951
same,glycan array binding signal (z-score),[29],-0.144
same,glycan array binding signal (z-score),[30],-0.412
same,glycan array binding signal (z-score),[31],-0.312
same,glycan array binding signal (z-score),[32],-0.212
same,glycan array binding signal (z-score),[33],-0.423
same,glycan array binding signal (z-score),[34],-0.376
same,glycan array binding signal (z-score),[35],-0.594
same,glycan array binding signal (z-score),[36],1.36
same,glycan array binding signal (z-score),[37],-0.397
same,glycan array binding signal (z-score),[38],-0.228
same,glycan array binding signal (z-score),[39],-0.213
same,glycan array binding signal (z-score),[40],-0.089
same,glycan array binding signal (z-score),[41],-0.233
same,glycan array binding signal (z-score),[42],-0.463
same,glycan array binding signal (z-score),[43],-0.482
same,glycan array binding signal (z-score),[44],-0.206
same,glycan array binding signal (z-score),[45],0.061
